According to patent US12186310B2, “Antibody-drug conjugate” (DAIICHI SANKYO COMPANY, LIMITED, priority 2012, dated 2025):

Experiments:
[1] = test system: Human melanoma line A375 cells; assay: Antitumor test (4), subcutaneously transplanted A375; format: in vivo, mouse
Method: (§1) Mouse: 5- to 6-week-old female BALB/c nude mice (Charles River Laboratories Japan, Inc.) were acclimatized for 4 to 7 days under SPF conditions before use in the experiment. The mice were fed with sterilized solid feed (FR-2, Funabashi Farms Co., Ltd) and given sterilized tap water (prepared by the addition of 5 to 15 ppm sodium hypochlorite solution).
(§2) Assay and calculation expression: In all studies, the major axis and minor axis of tumor were measured twice a week by using an electronic digital caliper (CD-15C, Mitutoyo Corp.), and the tumor volume (mm^3) was calculated. The calculation expression is as shown below. Tumor volume (mm^3)=½×Major axis (mm)×[Minor axis (mm)]^2
Human melanoma line A375 cells were purchased from ATCC (American Type Culture Collection). 8×10^6 cells suspended in physiological saline were subcutaneously transplanted to the right abdomen of each female nude mouse (Day 0), and the mice were randomly grouped at Day 21. The antibody-drug conjugates (1), (13), (41), and (55) were each intravenously administered at a dose of 10 mg/kg to the tail of each mouse at Day 21.

[2] = test system: Human non-small cell lung cancer line Calu-6 cells; assay: Antitumor test (5), subcutaneously transplanted Calu-6; format: in vivo, mouse
Method: as §1, §2
Human non-small cell lung cancer line Calu-6 cells were purchased from ATCC (American Type Culture Collection). 5×10^6 cells suspended in physiological saline were subcutaneously transplanted to the right abdomen of each female nude mouse (Day 0), and the mice were randomly grouped at Day 12. The antibody-drug conjugates (13), (41), and (55) were each intravenously administered at a dose of 10 mg/kg to the tail of each mouse at Day 12. As a comparative control, DE-310 was intravenously administered at a dose of 0.1 mg/kg to the tail of each mouse at Day 12. […]

[3] = Released compound confirmed in the tumor of a cancer-bearing mouse that received the antibody-drug conjugate; details: released compound: 4-amino-N-[...]butanamide of Example 1
[4] = test system: Human melanoma line A375 cells; assay: Antitumor test (6), subcutaneously transplanted A375; format: in vivo, mouse
Method: as §1, §2
Human melanoma line A375 cells were purchased from ATCC (American Type Culture Collection). 1×10^7 cells suspended in physiological saline were subcutaneously transplanted to the right abdomen of each female nude mouse (Day 0), and the mice were randomly grouped at Day 11. The antibody-drug conjugates (17), (18), (19), (59), (60), and (61) were each intravenously administered at a dose of 3 mg/kg to the tail of each mouse at Days 11 and 18 in a schedule of qw×2.

Row | Molecule | tumor volume ([1]; A375 subcutaneous, female nude mice, 10 mg/kg intravenously at Day 21, FIG. 20) | notable signs such as weight loss ([1]; mice that received 10 mg/kg intravenously at Day 21) | tumor volume ([2]; Calu-6 subcutaneous, female nude mice, 10 mg/kg (amount of the antibody) intravenously at Day 12, FIG. 21) | notable signs such as weight loss ([2]; mice that received 10 mg/kg intravenously at Day 12) | compound of Example 1 confirmed in the tumor of a cancer-bearing mouse that received the conjugate [3] | tumor volume ([4]; A375 subcutaneous, female nude mice, 3 mg/kg intravenously at Days 11 and 18 (qw×2), FIG. 22) | notable signs such as weight loss ([4]; mice that received 3 mg/kg intravenously at Days 11 and 18)
1 | antibody-drug conjugate (13): M30-H1-L4P antibody conjugated with compound of Process 1 of Example 14; average drug molecules per antibody 3.4 (conjugate) heavy: QVQLVQSGAEVKKPGSSVKVSCKASGYTFTNYVMHWVRQAPGQGLEWMGYINPYNDDVKYNEKFKGRVTITADESTSTAYMELSSLRSEDTAVYYCARWGYYGSPLYYFDYWGQGTLVTVSSASTKGPSVFPLAPSSKSTSGGTAALGCLVKDYFPEPVTVSWNSGALTSGVHTFPAVLQSSGLYSLSSVVTVPSSSLGTQTYICNVNHKPSNTKVDKRV[not shown - human IgG1 Fc] light: EIVLTQSPATLSLSPGERATLSCRASSRLIYMHWYQQKPGQAPRPLIYATSNLASGIPARFSGSGSGTDFTLTISSLEPEDFAVYYCQQWNSNPPTFGQGTKVEIKRTVAAPSVFIFPPSDEQLKSGTASVVCLLNNFYPREAKVQWKVDNALQSGNSQESVTEQDSKDSTYSLSSTLTLSKADYEKHKVYACEVTHQGLSSPVTKSFNRGEC | remarkably decreased the tumor volume | free from notable signs such as weight loss | remarkably decreased the tumor volume | free from notable signs such as weight loss | confirmed in the tumor | – | –
2 | antibody-drug conjugate (17): M30-H1-L4P antibody conjugated with compound of Process 1 of Example 14; average drug molecules per antibody 3.5 (conjugate) heavy: QVQLVQSGAEVKKPGSSVKVSCKASGYTFTNYVMHWVRQAPGQGLEWMGYINPYNDDVKYNEKFKGRVTITADESTSTAYMELSSLRSEDTAVYYCARWGYYGSPLYYFDYWGQGTLVTVSSASTKGPSVFPLAPSSKSTSGGTAALGCLVKDYFPEPVTVSWNSGALTSGVHTFPAVLQSSGLYSLSSVVTVPSSSLGTQTYICNVNHKPSNTKVDKRV[not shown - human IgG1 Fc] light: EIVLTQSPATLSLSPGERATLSCRASSRLIYMHWYQQKPGQAPRPLIYATSNLASGIPARFSGSGSGTDFTLTISSLEPEDFAVYYCQQWNSNPPTFGQGTKVEIKRTVAAPSVFIFPPSDEQLKSGTASVVCLLNNFYPREAKVQWKVDNALQSGNSQESVTEQDSKDSTYSLSSTLTLSKADYEKHKVYACEVTHQGLSSPVTKSFNRGEC | – | – | – | – | – | remarkably decreased the tumor volume | free from notable signs such as weight loss
